# The supplement of paper PMC8728848
# This is one part of the list.
# B1: Nc3LysM (protein)
# chain: QFTVPPDTTAEPNTIKTCTWWHVAGSGDSCTSIASTYGITSEQFARWDMETTDSPKNPSVATACKLTVGNSYCIENNFGQDDPPTPSISSSTLIGTATTSTTASTTTGNGISTPTPIQEGMETATTTTSSGNGITTPTPTQAGMETVGNCDRFHLVKSGDQCGTIASTYGITLANFYSWNPAVGTSCQSLWLDTYVCVRTIGFVPPKTTTTTTKKPTSTTSAGGVATPTPTQPGMETVSGCKKFHKGRGNVSTVASGDQCGTIATRYGISLANFYSWNPAVGSSCQTLWLDYYVCVGR
# What was measured:
# Assay in all cases: glycan array binding signal (z-score within array); higher = stronger binding
# Settings in all cases: glycan notation: IUPAC condensed, linker removed
# [1] = target: Man(a1-2)Man(a1-3)[Man(a1-2)Man(a1-6)]Man(a1-6)[Man(a1-2)Man(a1-2)Man(a1-3)]Man
# Method in brief: (§1)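 The Consortium for Functional Glycomics database supplied 3228 glycan arrays, of which those lacking an available protein sequence were dropped. The binding signal, a within-array Z-score, was averaged across arrays of the same protein sequence and across linkers. Negative scores can be read as non-binding.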
# [2] = target: Man(a1-2)Man(a1-3)[Man(a1-2)Man(a1-6)]Man(a1-6)[Man(a1-2)Man(a1-2)Man(a1-3)]Man(b1-4)GlcNAc(b1-4)GlcNAc
# Method in brief: as §1
# [3] = target: Man(a1-2)Man(a1-3)[Man(a1-6)]Man(a1-6)[Man(a1-2)Man(a1-3)]Man(b1-4)GlcNAc(b1-4)GlcNAc
# Method in brief: as §1
# [4] = target: Man(a1-2)Man(a1-6)[Man(a1-3)]Man(a1-6)[Man(a1-2)Man(a1-2)Man(a1-3)]Man
# Method in brief: as §1
# [5] = target: Man(a1-2)Man(a1-6)[Man(a1-3)]Man(a1-6)[Man(a1-2)Man(a1-2)Man(a1-3)]Man(b1-4)GlcNAc(b1-4)GlcNAc
# Method in brief: as §1
# Man(a1-3)[Man(a1-6)]Man = target: Man(a1-3)[Man(a1-6)]Man
# Method in brief: as §1
# [6] = target: Man(a1-3)[Man(a1-6)]Man(a1-6)[Man(a1-2)Man(a1-3)]Man(b1-4)GlcNAc(b1-4)GlcNAc
# Method in brief: as §1
# [7] = target: Man(a1-3)[Man(a1-6)]Man(a1-6)[Man(a1-3)]Man
# Method in brief: as §1
# [8] = target: Man(a1-3)[Man(a1-6)]Man(a1-6)[Man(a1-3)]Man(b1-4)GlcNAc(b1-4)GlcNAc
# Method in brief: as §1
# [9] = target: Man(a1-3)[Man(a1-6)]Man(b1-4)GlcNAc(b1-4)GlcNAc
# Method in brief: as §1
# [10] = target: Man(a1-3)[Man(a1-6)]Man(b1-4)GlcNAc(b1-4)[Fuc(a1-6)]GlcNAc
# Method in brief: as §1
# Man(a1-6)Man = target: Man(a1-6)Man
# Method in brief: as §1
# Man(b1-4)GlcNAc = target: Man(b1-4)GlcNAc
# Method in brief: as §1
# MurNAc(b1-4)GlcNAc = target: MurNAc(b1-4)GlcNAc
# Method in brief: as §1
# Neu5Ac(a2-3)Gal = target: Neu5Ac(a2-3)Gal
# Method in brief: as §1
# [11] = target: Neu5Ac(a2-3)Gal(b1-3)GalNAc
# Method in brief: as §1
# [12] = target: Neu5Ac(a2-3)Gal(b1-3)GalNAc(b1-3)Gal(a1-4)Gal(b1-4)Glc
# Method in brief: as §1
# [13] = target: Neu5Ac(a2-3)Gal(b1-3)GalNAc(b1-4)Gal(b1-4)Glc
# Method in brief: as §1
# [14] = target: Neu5Ac(a2-3)Gal(b1-3)GalNAc(b1-4)[Neu5Ac(a2-3)]Gal(b1-4)Glc
# Method in brief: as §1
# [15] = target: Neu5Ac(a2-3)Gal(b1-3)GalNAc(b1-4)[Neu5Ac(a2-8)Neu5Ac(a2-3)]Gal(b1-4)Glc
# Method in brief: as §1
# [16] = target: Neu5Ac(a2-3)Gal(b1-3)GalNAc6S
# Method in brief: as §1
# [17] = target: Neu5Ac(a2-3)Gal(b1-3)GlcNAc
# Method in brief: as §1
# [18] = target: Neu5Ac(a2-3)Gal(b1-3)GlcNAc(b1-2)Man
# Method in brief: as §1
# [19] = target: Neu5Ac(a2-3)Gal(b1-3)GlcNAc(b1-2)Man(a1-3)[GlcNAc(b1-4)][Neu5Ac(a2-3)Gal(b1-3)GlcNAc(b1-2)Man(a1-6)]Man(b1-4)GlcNAc(b1-4)GlcNAc
# Method in brief: as §1
# [20] = target: Neu5Ac(a2-3)Gal(b1-3)GlcNAc(b1-2)Man(a1-3)[Neu5Ac(a2-3)Gal(b1-3)GlcNAc(b1-2)Man(a1-6)]Man(b1-4)GlcNAc(b1-4)GlcNAc
# Method in brief: as §1
# [21] = target: Neu5Ac(a2-3)Gal(b1-3)GlcNAc(b1-2)[Neu5Ac(a2-3)Gal(b1-3)GlcNAc(b1-4)]Man(a1-6)[Neu5Ac(a2-3)Gal(b1-3)GlcNAc(b1-2)Man(a1-3)]Man(b1-4)GlcNAc(b1-4)GlcNAc
# Method in brief: as §1
# [22] = target: Neu5Ac(a2-3)Gal(b1-3)GlcNAc(b1-3)Gal(b1-3)GlcNAc
# Method in brief: as §1
# [23] = target: Neu5Ac(a2-3)Gal(b1-3)GlcNAc(b1-3)Gal(b1-4)GlcNAc
# Method in brief: as §1
# [24] = target: Neu5Ac(a2-3)Gal(b1-3)GlcNAc(b1-3)GalNAc
# Method in brief: as §1
# [25] = target: Neu5Ac(a2-3)Gal(b1-3)GlcNAc(b1-6)GalNAc
# Method in brief: as §1
# [26] = target: Neu5Ac(a2-3)Gal(b1-3)GlcNAc6S
# Method in brief: as §1
# [27] = target: Neu5Ac(a2-3)Gal(b1-3)[Fuc(a1-4)]GlcNAc
# Method in brief: as §1
# [28] = target: Neu5Ac(a2-3)Gal(b1-3)[Fuc(a1-4)]GlcNAc(b1-3)Gal(b1-3)[Fuc(a1-4)]GlcNAc
# Method in brief: as §1
# [29] = target: Neu5Ac(a2-3)Gal(b1-3)[Fuc(a1-4)]GlcNAc(b1-3)Gal(b1-4)[Fuc(a1-3)]GlcNAc
# Method in brief: as §1
# [30] = target: Neu5Ac(a2-3)Gal(b1-3)[GlcNAc(b1-6)]GalNAc
# Method in brief: as §1
# [31] = target: Neu5Ac(a2-3)Gal(b1-3)[Neu5Ac(a2-6)]GalNAc
# Method in brief: as §1
# [32] = target: Neu5Ac(a2-3)Gal(b1-3)[Neu5Ac(a2-6)]GlcNAc(b1-3)[Fuc(a1-3)[Gal(b1-4)]GlcNAc(b1-6)]Gal(b1-4)Glc
# Method in brief: as §1
# [33] = target: Neu5Ac(a2-3)Gal(b1-3)]Neu5Ac(a2-3)Gal(b1-4)]GlcNAc
# Method in brief: as §1
# Neu5Ac(a2-3)Gal(b1-4)Glc = target: Neu5Ac(a2-3)Gal(b1-4)Glc
# Method in brief: as §1
# [34] = target: Neu5Ac(a2-3)Gal(b1-4)GlcNAc
# Method in brief: as §1
# [35] = target: Neu5Ac(a2-3)Gal(b1-4)GlcNAc(b1-2)Man
# Method in brief: as §1
# [36] = target: Neu5Ac(a2-3)Gal(b1-4)GlcNAc(b1-2)Man(a1-3)[GlcNAc(b1-4)][Neu5Ac(a2-3)Gal(b1-4)GlcNAc(b1-2)Man(a1-6)]Man(b1-4)GlcNAc(b1-4)GlcNAc
# Method in brief: as §1
# [37] = target: Neu5Ac(a2-3)Gal(b1-4)GlcNAc(b1-2)Man(a1-3)[Neu5Ac(a2-3)Gal(b1-4)GlcNAc(b1-2)Man(a1-6)]Man(b1-4)GlcNAc(b1-4)GlcNAc
# Method in brief: as §1
# [38] = target: Neu5Ac(a2-3)Gal(b1-4)GlcNAc(b1-2)Man(a1-3)[Neu5Ac(a2-3)Gal(b1-4)GlcNAc(b1-2)Man(a1-6)]Man(b1-4)GlcNAc(b1-4)[Fuc(a1-6)]GlcNAc
# Method in brief: as §1
# [39] = target: Neu5Ac(a2-3)Gal(b1-4)GlcNAc(b1-2)Man(a1-3)[Neu5Ac(a2-6)Gal(b1-4)GlcNAc(b1-2)Man(a1-6)]Man(b1-4)GlcNAc(b1-4)GlcNAc
# Method in brief: as §1
binder,measurement,setting,value
B1,glycan array binding signal (z-score),[1],-0.142
same,glycan array binding signal (z-score),[2],-0.293
same,glycan array binding signal (z-score),[3],-0.168
same,glycan array binding signal (z-score),[4],-0.084
same,glycan array binding signal (z-score),[5],-0.189
same,glycan array binding signal (z-score),Man(a1-3)[Man(a1-6)]Man,-0.103
same,glycan array binding signal (z-score),[6],-0.231
same,glycan array binding signal (z-score),[7],-0.105
same,glycan array binding signal (z-score),[8],-0.033
same,glycan array binding signal (z-score),[9],-0.151
same,glycan array binding signal (z-score),[10],0.04
same,glycan array binding signal (z-score),Man(a1-6)Man,-0.101
same,glycan array binding signal (z-score),Man(b1-4)GlcNAc,-0.17
same,glycan array binding signal (z-score),MurNAc(b1-4)GlcNAc,-0.102
same,glycan array binding signal (z-score),Neu5Ac(a2-3)Gal,-0.255
same,glycan array binding signal (z-score),[11],0.041
same,glycan array binding signal (z-score),[12],-0.181
same,glycan array binding signal (z-score),[13],0.03
same,glycan array binding signal (z-score),[14],-0.117
same,glycan array binding signal (z-score),[15],-0.085
same,glycan array binding signal (z-score),[16],-0.078
same,glycan array binding signal (z-score),[17],0.132
same,glycan array binding signal (z-score),[18],-0.137
same,glycan array binding signal (z-score),[19],-0.143
same,glycan array binding signal (z-score),[20],-0.043
same,glycan array binding signal (z-score),[21],0.123
same,glycan array binding signal (z-score),[22],-0.066
same,glycan array binding signal (z-score),[23],0.037
same,glycan array binding signal (z-score),[24],-0.074
same,glycan array binding signal (z-score),[25],-0.193
same,glycan array binding signal (z-score),[26],-0.268
same,glycan array binding signal (z-score),[27],-0.183
same,glycan array binding signal (z-score),[28],-0.02
same,glycan array binding signal (z-score),[29],-0.278
same,glycan array binding signal (z-score),[30],-0.207
same,glycan array binding signal (z-score),[31],0.003
same,glycan array binding signal (z-score),[32],-0.004
same,glycan array binding signal (z-score),[33],-0.035
same,glycan array binding signal (z-score),Neu5Ac(a2-3)Gal(b1-4)Glc,0.196
same,glycan array binding signal (z-score),[34],-0.073
same,glycan array binding signal (z-score),[35],-0.147
same,glycan array binding signal (z-score),[36],0.002
same,glycan array binding signal (z-score),[37],-0.039
same,glycan array binding signal (z-score),[38],-0.216
same,glycan array binding signal (z-score),[39],-0.026
